Results published in the supplement of paper PMC3334620.
Whole data set: some 33,000 sequences, median “E-score (-0.5 to 0.5)” near -0.053, cut for the highest 2% near 0.37. Some of the results follow.

Each sequence was assayed against Hap1 (UniProt P0CE41) (assay: PBM E-score (8-mer binding enrichment) (E-score (-0.5 to 0.5)); higher = stronger / more preferred TF binding; most listed sequences are background and not binding sites). Details: protein concentration: 200 nM; construct: GST-DNA-binding domain.
Chain of UniProt P0CE41 (P0CE41 whole entry, the tested form may be a part): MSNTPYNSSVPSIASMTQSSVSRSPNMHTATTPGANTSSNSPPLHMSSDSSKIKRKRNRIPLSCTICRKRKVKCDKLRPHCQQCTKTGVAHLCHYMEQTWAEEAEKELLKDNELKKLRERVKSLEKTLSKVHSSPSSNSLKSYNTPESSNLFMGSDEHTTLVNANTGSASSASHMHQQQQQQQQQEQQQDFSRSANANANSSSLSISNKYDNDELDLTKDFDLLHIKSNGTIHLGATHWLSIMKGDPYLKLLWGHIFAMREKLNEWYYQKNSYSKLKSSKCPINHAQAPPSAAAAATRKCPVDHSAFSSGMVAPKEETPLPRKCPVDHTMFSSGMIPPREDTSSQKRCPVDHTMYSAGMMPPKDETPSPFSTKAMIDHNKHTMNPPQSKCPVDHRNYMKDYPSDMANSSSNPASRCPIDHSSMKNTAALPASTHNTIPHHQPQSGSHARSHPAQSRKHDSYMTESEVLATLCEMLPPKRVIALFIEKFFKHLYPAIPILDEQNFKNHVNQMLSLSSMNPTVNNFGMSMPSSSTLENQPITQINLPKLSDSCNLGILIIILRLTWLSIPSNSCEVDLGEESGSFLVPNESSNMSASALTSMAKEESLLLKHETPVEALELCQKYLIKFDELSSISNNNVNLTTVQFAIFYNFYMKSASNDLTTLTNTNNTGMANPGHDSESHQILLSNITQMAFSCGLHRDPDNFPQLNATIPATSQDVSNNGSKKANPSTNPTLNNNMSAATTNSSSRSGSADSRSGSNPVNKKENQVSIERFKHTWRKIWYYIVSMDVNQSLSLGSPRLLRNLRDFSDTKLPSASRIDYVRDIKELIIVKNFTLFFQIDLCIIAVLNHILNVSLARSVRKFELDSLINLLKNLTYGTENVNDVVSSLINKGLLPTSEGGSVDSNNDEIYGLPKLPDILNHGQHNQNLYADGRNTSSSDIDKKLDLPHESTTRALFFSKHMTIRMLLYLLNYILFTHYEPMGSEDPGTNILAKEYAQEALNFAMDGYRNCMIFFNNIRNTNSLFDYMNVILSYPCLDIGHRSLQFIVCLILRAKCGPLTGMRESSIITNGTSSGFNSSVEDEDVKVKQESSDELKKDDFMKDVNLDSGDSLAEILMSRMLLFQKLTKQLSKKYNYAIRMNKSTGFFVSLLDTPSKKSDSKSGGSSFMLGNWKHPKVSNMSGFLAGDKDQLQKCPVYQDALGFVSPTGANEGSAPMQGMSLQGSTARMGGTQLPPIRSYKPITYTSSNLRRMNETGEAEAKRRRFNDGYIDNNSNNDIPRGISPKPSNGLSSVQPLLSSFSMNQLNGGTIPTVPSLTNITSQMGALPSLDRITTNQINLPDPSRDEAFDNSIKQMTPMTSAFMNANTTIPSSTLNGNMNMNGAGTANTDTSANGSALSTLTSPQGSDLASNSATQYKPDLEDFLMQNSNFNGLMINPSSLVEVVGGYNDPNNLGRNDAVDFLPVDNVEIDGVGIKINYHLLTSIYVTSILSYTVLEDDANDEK
Method: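 Universal 'all 10-mer' protein binding microarrays (Agilent AMADID 015681) probed with GST-tagged S. cerevisiae TFs (full-length or DBD) made by in vitro transcription/translation (PURExpress), about 100-200 nM. Bound TF was detected with fluorescent anti-GST. Each ungapped 8-mer (which stands for itself and its reverse complement) is scored by the PBM enrichment score (E-score), a modified Wilcoxon-Mann-Whitney statistic from -0.5 to +0.5, computed with the Universal PBM Analysis Suite. Scale: above 0.35 generally sequence-specific binding.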

Sequence	PBM E-score
CCTGGTGC	-0.0907
AGTCCCAG	-0.0617
AAAAAATT	0.0584
CCGTTAAC	0.367
GGGCCGCA	0.196
AGTTGGAC	-0.0691
CTCCTTGA	-0.0807
ACCAAGCT	-0.305
GGCAATCA	0.0187
CATGTTGG	-0.212
CACCAGGG	-0.26
ACGAGTAT	-0.113
AAATGAAG	-0.123
AACGCGCA	-0.102
ACTGCTGA	-0.271
ACAAACCA	-0.171
ATACCCTG	-0.0146
AGAATAAG	-0.0603
GCCATCTA	-0.127
CCTGTAGA	-0.0406
AGATCAAA	-0.0404
CTAAGCCA	-0.187
CTGAGTAA	-0.225
ATAATAAC	0.137
ACTCCACG	-0.0489

Sequence	PBM E-score
ACAGGGGA	-0.273
AGTCAGCA	-0.219
CCTTGTCC	0.0758
TACGTGGA	0.0421
CGTTGAAG	-0.229
CTCTGCTC	-0.113
AGCTTAAT	0.073
CCTCTAGA	-0.191
ATACTTGC	-0.153
GCGAGTAC	0.0106
CCGAGGCC	0.295
CAACTGTC	-0.266
ATACTTCC	0.162
GACTGGGC	-0.135
GAATACTC	-0.104
ACGTGGGG	-0.0763
ATACGAGA	-0.23
GCGAGGTA	-0.00955
CGATCTGC	0.156
GTCGATGA	-0.0213
AGGTCAGA	-0.2
ATGCTCGG	0.362
TTAGTCAA	-0.177
CTCCCGGC	0.33
AAACGTCT	-0.233

Sequence	PBM E-score
CGTTGTCA	-0.0765
AAGTGGAT	-0.0429
CCGTGACA	0.131
AGGCTTTG	-0.107
CGGGTGGC	0.152
GATCTGTA	-0.0449
GTATCTGA	-0.096
AGGTCATG	-0.226
AACAGTGA	0.0381
GTACAGTA	-0.0509
AGTCACAG	-0.319
CCCCCGCA	-0.115
CAGAAAGG	-0.156
TTACGCAA	-0.0446
AACGCATA	-0.0635
CTGTGTTC	-0.19
CAATACCC	0.189
TCCGAAGA	0.419
CGCAATAG	0.0177
CGATGGCA	0.148
ACCGACGG	0.38
CAGGGAAG	-0.235
CGGAGAAC	0.36
TACGCTCA	-0.241
GTGATAAA	0.0398

Sequence	PBM E-score
GCGTCCAA	-0.256
TGGCGAAA	0.112
TAGCACAA	-0.249
CTTCAATA	-0.191
CTTAATAC	-0.103
ACCTCTCC	-0.13
AAAGATCG	0.0407
CGTCTCAG	-0.243
AACTCGAG	-0.0394
GAAGGGAA	-0.0885
GAATTTGA	0.147
TAAGACTA	-0.234
GAGAATCC	0.112
CAGGGTCC	-0.191
ACGATGTA	-0.127
CAGATTAC	0.0095
CGATGATA	0.0471
CGAGCGTA	0.0531
CATAGCTC	-0.09
ACAGTGGA	-0.0195
GAGTGTCA	-0.145
AGAGTGCA	-0.195
TAGACGAA	-0.357
AAGAACCC	-0.106
ACCATAAA	-0.0487

Sequence	PBM E-score
CCCAATAC	-0.153
ATTTACCC	0.0884
GGAGTGTA	0.0459
GCCCACCA	-0.215
CCCAAGCG	-0.0424
AACTTGTA	-0.143
ATTAACAC	0.0953
CTTTGGTA	-0.0756
AGGAACGG	0.111
CTTAAAGA	-0.147
CATAACAG	-0.173
TAGCCAGA	-0.148
AGCTAATC	-0.0948
GTCCACGA	-0.116
GGAGCTAC	0.0083
AGAGTCTG	-0.367
ACGCTCGC	-0.123
TGTTACAA	-0.0917
GTACTCGA	-0.152
CATATGAA	0.0276
GAGATCTA	-0.105
AATTGTAA	-0.207
ACAGGGAA	-0.168
AGCCCAGC	0.043
GAAACCTA	-0.0569

Sequence	PBM E-score
AAGATTAA	-0.0677
GACCCTTA	0.0366
CATTCCTC	0.0608
AAGCTACA	-0.191
ATGCTTAA	0.0955
CATCACGC	0.133
CAAGCCTG	-0.218
ATGTTGCC	0.117
GCGTTCAC	0.102
ACTACAGT	-0.265
TCATGTAA	-0.138
AAATGCGT	0.0449
AGCGGCCC	0.129
GAGTCTGA	-0.227
CATAGACA	-0.215
ATTTGTAC	-0.115
CGTCTCAC	-0.143
AATGCAAG	-0.0791
CAATCCGC	0.191
CGAGAGAC	-0.00248
GCGAGTGA	-0.121
AACATCAA	-0.0229
TGGTAAAA	-0.0559
ACTAAGAT	-0.0143
CGTAGGTC	0.0601

Sequence	PBM E-score
ATAGAGGG	0.0305
ACTTCTCC	0.22
ATACCTAT	-0.118
TATTGCGA	0.0517
CTGGTATA	-0.276
TCCCGCCA	-0.0362
GGCTTATA	0.0382
ACCGAGTA	0.278
ATTGGGCG	-0.0404
AATCACGC	-0.0489
CTATTTAC	0.0663
ATATATTG	0.0696
GAGCTGAA	-0.106
CCAGTTTC	-0.0309
TTCTCAAA	-0.166
CACCCAGG	-0.184
CCACGGAG	0.295
AAGCTAAG	-0.096
TCCAAGAA	-0.125
ATTTTGGG	-0.203
CAAACTTA	-0.00381
CACATACA	-0.282
AACTACCA	-0.224
GGTCGTCA	-0.0969
CACCACGG	0.0095

Sequence	PBM E-score
GCTCTGCA	-0.253
AAGCTTAA	0.0231
CTAAACCC	0.227
ATTATTAG	-0.0256
GGTCTCAA	0.0617
AGCATGCT	-0.351
CGACACAG	-0.0602
CCCAACAA	-0.105
CTAGATCC	0.0983
CCTAAACC	0.129
GCCTGTGA	-0.279
GTCGTCAC	-0.0951
ACGGTGAA	0.16
ATTAGGTC	0.108
AGCACTTA	-0.129
TAGTACTA	-0.319
GTTGTTCA	-0.168
GAATTAAA	0.0797
ACCGCCGG	0.365
CTACGTTA	0.00803
TACATGAA	-0.123
CACCTCGG	0.35
ACTGGACT	-0.0692
GGAACTCC	0.177
AGGACATA	-0.187

Sequence	PBM E-score
GTCCTGTA	0.0805
GACATAAA	-0.0262
GTATCCTA	-0.0588
CACAGACG	-0.129
TAGTTTCA	-0.024
GTAAATAA	-0.129
GACAGTCA	-0.139
AGTAGCTC	-0.0947
ATATGCCG	0.27
TGCCAGAA	-0.217
GAGAAGAA	0.00165
ACTGAGAG	-0.135
AGCGATTG	-0.162
ACTTCTAA	0.0378
GCCCGTCC	0.187
TACTTGCA	-0.0804
ACGGTACG	0.0968
GGGTCTGA	-0.0333
CCTACATA	-0.0943
AGTCGAAA	-0.126
AGGTTCTG	-0.204
GTGGCATA	-0.0922
GATACACA	0.0335
CATTTTGG	-0.129
CTAAATCA	-0.138

Sequence	PBM E-score
AGAAATAG	-0.138
GTACCCGA	0.188
ACACTGCT	-0.3
CTCTCCGA	0.203
ACGGAGCG	0.202
AACAGAAT	-0.202
GTATTCAA	0.00806
GAAAGAGA	-0.0478
ACCGTCCC	0.141
CTTCTAGA	-0.156
ATCCGCTG	0.154
AACTTCCG	0.367
ACTTTAAT	-0.0811
ATGCAGTA	0.0746
ACTCGTGA	-0.242
CGTCCCGC	0.079
AACGTTCG	-0.0284
AAGATAGC	0.117
AAGCTTTG	0.0102
ATGTGAGC	-0.232
TCAGGTCA	-0.145
CCGGGTGA	0.35
AAGTGCGT	-0.0316
CTCGGCAG	0.267
AAGCACCT	-0.156

Sequence	PBM E-score
GCATAAAA	0.0349
CACCTGCG	-0.00451
ATATTGGC	-0.00358
AAGGCAAT	0.0609
ATAGCCTG	-0.295
AAGCCCAG	-0.198
GGTGTTGA	-0.0742
CGCCCCGC	0.227
ACATAGAC	-0.0947
ACACATCC	0.0838
GACTGCAA	-0.375
AACGTACT	-0.141
TCCAATAA	0.00964
AAAAGGCA	-0.00641
AAAGTGCT	-0.21
AGCACCGA	0.341
ATACTGGA	0.0876
AAAGGATT	-0.143
CAACCACA	0.00922
CTGACAAA	-0.216
ATTAAGAC	-0.107
CCTGATTC	-0.186
ATATCACG	-0.0241
CGCATAAA	-0.0638
GCACTCAA	-0.0427

Sequence	PBM E-score
TGTACACA	-0.34
ACCCCGGA	0.37
ATTTCTAC	0.0329
ACTACTTG	-0.189
AACTTAAC	0.118
GCACGTGA	-0.273
GAAGCACA	-0.0961
CAATCCCG	0.272
ATACCGTG	0.0634
CCCCGGGG	0.388
ACCTGGGC	-0.233
GGTTGAAC	-0.0103
CATTAACG	0.188
AAGAATCA	-0.0768
GCGTGTCC	0.0514
ACACATGT	-0.0606
CATTCAGA	-0.141
ATCCGCTA	0.306
CCAATTCC	-0.0102
ATTATCGC	0.132
CGGAAAAA	0.4
AACTGTGG	-0.249
AGGCAGGC	-0.133
ATGGACAA	-0.228
AGGGTATG	-0.275

Sequence	PBM E-score
ACCAGAAC	-0.0565
ATTTAACA	-0.0502
AGAAAGGA	-0.0267
AATCAAAT	0.0445
CGCGTCAG	-0.145
GAGAGGAA	-0.12
ATACTCAT	-0.119
ACCGGGGA	0.284
ACACTGCA	-0.12
ACGTTTGG	-0.208
AGCCAACC	-0.0215
AAGACGAC	-0.0829
TGAGATCA	-0.0889
CTTCTTCC	-0.0305
CTAGAGTC	-0.368
AGAGACTC	-0.274
CGAGTGCG	0.151
AAGGCATC	-0.19
CTAAAGCA	0.00108
ATGTATCG	0.179
ATCAGGTG	-0.0187
GTGTAAAC	-0.0992
CCCCTCCG	0.232
AACCAATA	-0.14
AAGTGTTG	-0.0459

Sequence	PBM E-score
AACGAACC	-0.185
TACAGTCA	-0.288
TGCCCCCA	-0.31
CCAGTTGC	-0.172
ATCATTAA	0.191
TGAGAGCA	-0.182
ACAGCGAA	-0.114
ACCGTTCG	0.0834
CATCAGCA	-0.246
CGTGGCTA	-0.173
GATCCATC	0.149
AATCAATA	0.0483
CATTGGGA	-0.188
ACGAAGAC	-0.133
CGCTCTGA	-0.102
CCCCGGTC	0.349
ATAAATCC	0.325
CCCGATTC	0.292
AACAAAGT	0.00728
